This is an account of results in PubChem BioAssay (NCI).

Test systems include HS 578T breast; NCI/ADR-RES ovarian; T-47D breast; BT-549 breast.
Holding throughout (test): NCI-60 one-dose screen, 48 h (100 = growth as untreated, 0 = no growth, -100 = all killed)
Details in all cases: 2.5 mM

Some compounds were tested as several samples or in several runs, with calls that do not always agree.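 Results are percent growth after 48 hours of single-concentration exposure. 100 means growth as in untreated cells, lower positive values show inhibition; negative values down to -100 show cell death.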 The source holds more than one record for some entries. They are shown here; other results are not. Rule for the calls: active = growth percent below 10; inactive = the rest. The source may hold further records. The screen tested this drug many times, at its own concentration, as given; each value is one run. Additions like (4×) count equal records among those shown.

In the case of `O=c1[nH]cc(F)c(=O)[nH]1`, the growth result with HS 578T breast (runs of 1999) was “inactive: 57.4, 15.4, 40.1, 54.6, 18.5, 15% and active: -12, 8.89, -38.2, -53, -16.1, 8.08, 0.852, 3.85, -65.5, -48.5, 2.48%”; in the assay on HS 578T breast (runs of 2000) it was “active: 1.69%, -29.3% and inactive: 22.1%, 13.5%”; in the assay on NCI/ADR-RES ovarian (runs of 1993), “inactive: 34.9, 25.8, 41.4, 24.4, 21.7, 29.7, 24.9, 30.8 (2×), 22.6, 23.3, 28.5, 35.6 (2×), 43, 38.4, 26.9 (2×), 46.9, 10.6, 25.9, 36 (2×), 36.8 (2×), 32.7, 27.5, 19.2 (2×), 32, 10.4, 22.9, 22.7, 16.8, 39.3, 98.5, 32.9, 42.6, 30.6, 34, 36.9, 40.2% and active: 7.81, 7.84, 2.63, 9.61%”; in the assay on NCI/ADR-RES ovarian (runs of 1994), “inactive: 32.7, 16.4, 30.9 (2×), 27.3, 29.2, 33.8, 13.3, 23.2 (2×), 47.1, 37.8, 38.8, 11.8, 23.8, 27.2, 14.8, 38, 53.8, 16.1, 27.4, 14.1, 41.6, 45.8, 45.6, 18.7, 37.4, 24.8, 21, 22.8, 19.2, 33.2% and active: 6.71%, 0.972%”; in the assay with NCI/ADR-RES ovarian (runs of 1995), “inactive: 40, 20.3, 18.4, 24.8, 32.4, 37.9, 27.3, 28.8, 30, 40.9 (3×), 32.5, 32.1, 33.8, 21.4, 14.8, 27.2, 19, 23.7, 20.4, 24.7, 27.1, 31.2, 23, 18.7, 26.6, 17.2, 21.9, 19.3, 30.6, 23.9, 24.6, 38.2% and active: -36.4, -34.4, -46.3, 9.51%”; in the assay with NCI/ADR-RES ovarian (runs of 1996), “inactive: 37.8, 27.3, 37.4, 37.6, 29.2, 26 (3×), 24.8, 14, 23.7, 28.2, 23, 27.2, 29, 37.2, 28.5, 10.9, 29.9, 34.6, 31.8 (2×), 36.4, 33.2, 13.2, 32.5, 10.4, 21.7, 26.3, 25.2, 18.1, 23.4, 26.5, 24.1, 11.4, 34.8, 42.1, 16.6, 32.9, 19.6, 31.9, 47.9, 36, 25.8, 41.1, 16.9, 34.4, 44% and active: -56.5, -8.17, 0.36, 4.18, 7.16, 4.23, 8.5, 6.02%”. In addition, the growth result was “inactive: 23 (2×), 32.5, 41.8, 32.8, 18.2, 20.2, 32, 51.1, 37.5, 26.3, 13, 25.3, 23.7, 19.4, 18.8, 18.5, 13.2, 31.7, 11.1, 17.2, 36.1, 29.5, 26, 36.6, 36.9, 40.9, 31.9, 24.7 (2×), 30.3, 40.8, 33, 33.6, 36.2% and active: -6.72, 4.7, -5.35, 6.6, 5.81, 7.62, 8.5%” in the assay on NCI/ADR-RES ovarian (runs of 1997); “inactive: 52.3, 45.7, 17.5, 32.7, 29.6, 36.9, 27.4, 31, 34.2, 26.3, 29.4, 36.7, 25.7, 22.5, 44.2, 24 (2×), 38.9, 33.7, 44.6, 25.4, 28.1, 18, 46% and active: -27.1%, 8.1%” in the assay with NCI/ADR-RES ovarian (runs of 1998); “inactive: 27, 25.5, 14.6, 25.7, 27.9, 11.8% and active: -2.02, -21.2, -11.2, 1.47, 6.06, -7.64, 1.48, -78, 4.7, 2.43, 7.57%” in the assay on NCI/ADR-RES ovarian (runs of 1999); “active: 2.91, 4.58, 1.23, 1.44%” in the assay on NCI/ADR-RES ovarian (runs of 2000); “inactive: 50.1, 32.1, 43, 32.9, 25.9, 41.4 (2×), 31.1, 37.3, 10.1, 40.4, 30.6, 11.2, 34.3, 22.8, 42.9, 44.9, 15.7, 12.4, 18.8, 47.5, 15.5, 29, 31, 30.1, 26.6, 102, 17.9, 55.6, 14, 14.8, 20.3, 45.2, 22.3, 27.1, 40.1, 16.9% and active: 6.26, 2.2, -2.19, -4.66, 5.47, 7.76, -8.45, 7.56%” in the assay on T-47D breast (runs of 1993); “inactive: 38.9, 36.9, 34.8 (2×), 22.7, 32.5, 34.6, 26, 22.5, 39.1, 63.5, 27.5, 33.5, 54.4, 20.9, 26.2, 39.8, 15.6, 39, 27.1, 36.8, 36.6, 19.6, 24, 49.9, 16.8, 24.6, 39.2, 19.3, 37.3% and active: 3.78%, 4.95%, -9.13%” in the assay on T-47D breast (runs of 1994). In addition, the growth entry is “inactive: 36, 30, 11.3, 44.6, 25.6, 47.3, 29.9, 19.5, 10.7, 43.6, 35, 11.6, 21.8, 32.9, 21.7, 63.5, 16.9, 25.8, 41.9, 45.3, 37.2, 26.7, 26.8, 34.1, 15.9, 21.4, 24.3, 18.4, 32.7, 15, 40.1, 31.6, 17.2, 21, 20% and active: -2.15, -10.7, 9.29, 9.73, 4.93, 8.4, 8.38, 8.2, -10.3%” in the assay with T-47D breast (runs of 1995); “active: -0.744, -1.42, 8.02, 8.2, 6, -2.91% and inactive: 19.3, 21.4, 27 (2×), 33.6, 14.9, 29.6, 34.8, 40.8, 27.7, 24, 28.9, 21.2, 26.8, 25, 48.3, 25.1, 42.9, 41.9, 27.2, 40.2, 25.9, 23.7, 25.8 (2×), 27.9, 19.4, 27.4, 21.5, 23.1, 29.7, 35.6, 34.6, 37.8, 27.1, 28.2, 28.1, 49.2, 35.2, 87.8, 22.5%” in the assay with T-47D breast (runs of 1996); “inactive: 18, 22.7, 42, 35, 16.5, 26.9, 31.8, 14.4, 17.5, 38.6, 45 (2×), 18.4, 29.1, 35.4, 34.5, 29.4, 31.3, 36, 23.1, 21.3, 31.7, 17.6, 10.6, 12.4, 32, 29, 18.5, 23.3, 25.1, 27.1, 16.2, 40.9, 13.8, 26.4, 28.7% and active: -35, 4.69, 2.19, -37.7%” in the assay on T-47D breast (runs of 1997); “inactive: 15.2, 24.8, 29.3, 44.5, 46.9, 31.7, 26.2, 33.1, 25.9, 35.3, 26.7, 28.9, 35, 15.5, 53.2, 12.6% and active: -1.68, 6.41, 5.51, -16, -7.89, -6.14, -12.6%” in the assay on T-47D breast (runs of 1998); “inactive: 25.8, 30.3, 20.5, 48.1, 20.6, 39% and active: -4.29, -35.2, -8.62, -25, -75.6, 5.93, -19, 2.59%” in the assay on T-47D breast (runs of 1999); “active: -41.2%, 0.958%” with T-47D breast (runs of 2000). Further, the growth entry in the assay on BT-549 breast (runs of 1993) was “inactive: 58.3, 61.3, 51.6, 12.8, 60.8, 35.6, 21, 43.8, 77.2, 53.7, 62.8, 46.8, 23.2, 40.1, 38.6, 51, 24.6, 65.9, 27.4, 93.2, 34.1 (2×), 52, 24.8, 33.6, 96.6, 36, 86.9, 52.1, 30.8, 40, 57.3% and active: 6.32%, -6.58%”; with BT-549 breast (runs of 1994) it was “inactive: 60.4, 14.9, 20.7, 47.6, 38.8 (2×), 40.7, 55.8, 49.8, 63.5, 24.7, 19.6, 31.8, 64.7, 25.5, 42.7, 34.8, 35, 68.8, 37.1% and active: 9.77%, 8.17%, -26.4%”.
